Experimental data from paper PMC4336329 (PLoS ONE, 2015).
About 2,200 (0.71%) of roughly 310,000 compounds showed an effect of 50% or more. The effect is printed as a negative number. The list shows a part of the results.

What follows are compounds tested against human ether-à-go-go-related gene (hERG) potassium channel (human, UniProt Q12809) (assay: primary screen, population patch clamp on CHO cells stably expressing hERG).
Chain of human ether-à-go-go-related gene (hERG) potassium channel (Q12809 whole entry, looked up): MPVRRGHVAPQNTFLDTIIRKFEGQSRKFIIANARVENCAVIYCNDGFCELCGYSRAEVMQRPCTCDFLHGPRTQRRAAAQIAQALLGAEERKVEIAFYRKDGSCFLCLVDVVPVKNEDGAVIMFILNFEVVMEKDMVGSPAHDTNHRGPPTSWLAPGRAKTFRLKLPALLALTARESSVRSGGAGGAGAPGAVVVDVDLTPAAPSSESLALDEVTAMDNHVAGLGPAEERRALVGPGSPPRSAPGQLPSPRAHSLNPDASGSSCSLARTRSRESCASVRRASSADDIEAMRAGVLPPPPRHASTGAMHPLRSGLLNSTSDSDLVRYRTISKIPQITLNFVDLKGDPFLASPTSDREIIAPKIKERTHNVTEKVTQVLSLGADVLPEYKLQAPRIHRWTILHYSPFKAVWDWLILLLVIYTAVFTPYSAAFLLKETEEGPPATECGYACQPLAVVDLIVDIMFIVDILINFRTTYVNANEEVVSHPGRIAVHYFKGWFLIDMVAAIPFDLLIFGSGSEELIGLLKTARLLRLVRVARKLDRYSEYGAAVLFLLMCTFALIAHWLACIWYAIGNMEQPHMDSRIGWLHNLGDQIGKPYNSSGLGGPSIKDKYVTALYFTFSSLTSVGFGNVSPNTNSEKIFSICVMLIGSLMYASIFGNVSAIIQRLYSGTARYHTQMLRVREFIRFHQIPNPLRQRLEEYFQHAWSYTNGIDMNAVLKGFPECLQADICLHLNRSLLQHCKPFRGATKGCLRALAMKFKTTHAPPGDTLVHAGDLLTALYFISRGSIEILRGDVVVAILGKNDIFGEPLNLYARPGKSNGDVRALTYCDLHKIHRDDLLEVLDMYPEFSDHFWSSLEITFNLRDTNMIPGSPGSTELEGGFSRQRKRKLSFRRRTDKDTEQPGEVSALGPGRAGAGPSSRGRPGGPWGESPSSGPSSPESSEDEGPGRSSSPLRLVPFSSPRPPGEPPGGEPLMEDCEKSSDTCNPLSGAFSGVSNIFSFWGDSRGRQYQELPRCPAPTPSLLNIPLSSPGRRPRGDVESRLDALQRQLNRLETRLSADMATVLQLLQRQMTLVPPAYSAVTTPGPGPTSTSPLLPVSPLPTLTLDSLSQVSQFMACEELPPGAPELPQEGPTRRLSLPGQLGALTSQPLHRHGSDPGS
With `O=C(/C=C/c1ccc(F)cc1)OCC(=O)c1ccc[nH]1` the “hERG current change (%, negative = inhibition) at 1uM” value was 7.97%.
With `CC1=CC2=NC(=O)CC(C)(C(=O)N(CC(=O)NC3CCCC3)c3ccccc3C)N2C=C1` (stereo not drawn) the “hERG current change (%, negative = inhibition) at 1uM” value was 11.9%.
For `CN1C(=O)C(=Cc2ccc(N3CCOCC3)o2)C(=O)N(C)C1=S`, the “hERG current change (%, negative = inhibition) at 1uM” value was -3.23%.
`CCOC(=O)c1ccc(N2C(=O)c3n[nH]c(-c4ccco4)c3C2c2ccc([N+](=O)[O-])cc2)cc1` (stereo not drawn) was tested, and the “hERG current change (%, negative = inhibition) at 1uM” value was 1.49%.
`Cc1cc(C)cc(NC(=O)c2cc(=O)c3ccccc3o2)c1` was tested, and the “hERG current change (%, negative = inhibition) at 1uM” value was 12.3%.
In the case of `O=C(COc1ccccc1)Nc1ccc(S(=O)(=O)NCc2ccco2)cc1`, the “hERG current change (%, negative = inhibition) at 1uM” value was -4.21%.
For `Cc1ccc(NC(=O)COC(=O)c2ccc(CN3CCCC3=O)cc2)c(Cl)c1`, the “hERG current change (%, negative = inhibition) at 1uM” value was 18.5%.
`CC(C)OCCCNC(=O)Cc1ccc(F)cc1` was tested, and the “hERG current change (%, negative = inhibition) at 1uM” value was 7.06%.
With `COc1cccc(NC(=O)Cn2nnc(C(=O)NCc3ccc4c(c3)OCO4)c2N)c1` the “hERG current change (%, negative = inhibition) at 1uM” value was 13%.
For `C/C(=N\NC(=O)c1cc(-c2ccc(O)cc2)nc2ccccc12)c1cccnc1`, the “hERG current change (%, negative = inhibition) at 1uM” value was 5.94%.
`O=C(NC(=S)Nc1ccc(S(=O)(=O)N2CCCCC2)cc1)c1ccc(Cl)cc1` was tested, and the “hERG current change (%, negative = inhibition) at 1uM” value was 14.3%.
For `CC(C)C(OC(=O)c1nsc(Cl)c1Cl)C(=O)NC(C)(C)C` (stereo not drawn), the “hERG current change (%, negative = inhibition) at 1uM” value was 8.79%.
With `Nc1nc(-c2ccc(Br)cc2)cc(C(F)(F)F)n1` the “hERG current change (%, negative = inhibition) at 1uM” value was 18.4%.
In the case of `CC(C)[C@H](NC(=O)c1ccccc1)C(=O)OCC(=O)NCCc1ccc(F)cc1`, the “hERG current change (%, negative = inhibition) at 1uM” value was -7.04%.
In the case of `COc1ccc(CNc2nc3c(c(=O)n(Cc4ccc(Cl)cc4)c(=O)n3C)n2C)cc1`, the “hERG current change (%, negative = inhibition) at 1uM” value was 10.8%.
In the case of `O=C(Cc1ccccc1)NN1C(=O)/C(=C/c2ccccc2C(=O)O)SC1=S`, the “hERG current change (%, negative = inhibition) at 1uM” value was 2.93%.
`COc1cc(C2C(C(=O)c3ccco3)=C(O)C(=O)N2CC2CCCO2)ccc1O` (stereo not drawn) was tested, and the “hERG current change (%, negative = inhibition) at 1uM” value was 8.5%.
In the case of `COc1cc(/C=C/CO)cc(OC)c1OC/C=C(\C)CCC=C(C)C`, the “hERG current change (%, negative = inhibition) at 1uM” value was 11.7%.
In the case of `C/C(CC(=O)Nc1cc(C)ccn1)=N\NC(=O)c1ccc(C)cc1`, the “hERG current change (%, negative = inhibition) at 1uM” value was -0.18%.
For `CC1(C)N=C(C(=O)c2ccccc2)N(O)C1(C)O` (stereo not drawn), the “hERG current change (%, negative = inhibition) at 1uM” value was 9.63%.
For `Cc1[nH]c(=O)[nH]c(=O)c1N(C)C`, the “hERG current change (%, negative = inhibition) at 1uM” value was 7.28%.
`COc1ccc(CN2CC(C(=O)NCC3CCCO3)CC2=O)cc1` (stereo not drawn) was tested, and the “hERG current change (%, negative = inhibition) at 1uM” value was -7.82%.
For `COc1ccc(Cn2ccnc2SCC(=O)NC2CCCCC2)cc1`, the “hERG current change (%, negative = inhibition) at 1uM” value was 10.9%.
`CCn1nnnc1SCC(=O)Nc1nnc(C(C)C)s1` was tested, and the “hERG current change (%, negative = inhibition) at 1uM” value was 9.84%.
In the case of `O=C(COc1ccc2c3c(c(=O)oc2c1)CCCC3)NCc1cccnc1`, the “hERG current change (%, negative = inhibition) at 1uM” value was -0.207%.
In the case of `c1ccc(-c2csc(-c3cccnc3)n2)cc1`, the “hERG current change (%, negative = inhibition) at 1uM” value was 11.6%.
`Clc1ccccc1Nc1nc(-c2ccncc2)nc2ccccc12` was tested, and the “hERG current change (%, negative = inhibition) at 1uM” value was 6.68%.
With `CCCCOC(=O)n1c(=O)oc2ccc(S(=O)(=O)N3CCCCC3)cc21` the “hERG current change (%, negative = inhibition) at 1uM” value was 5.13%.
In the case of `Clc1ccccc1-c1nc2ccccc2c2nc3ccccc3n12`, the “hERG current change (%, negative = inhibition) at 1uM” value was 3.2%.
`COc1cc(OC)c2c(-c3ccccc3)cc(=O)oc2c1C(CCN1CCN(c2ccccc2)CC1)c1ccc(N(C)C)cc1` (stereo not drawn) was tested, and the “hERG current change (%, negative = inhibition) at 1uM” value was 7.25%.
In the case of `CCN(CC(=O)NC1CCS(=O)(=O)C1)S(=O)(=O)c1cc(Br)ccc1Br` (stereo not drawn), the “hERG current change (%, negative = inhibition) at 1uM” value was 5.34%.
For `FC(F)(F)c1ccc(-n2cn[nH]c2=S)cc1`, the “hERG current change (%, negative = inhibition) at 1uM” value was 13.1%.
With `Cc1cc(=O)[nH]c(SCCOc2cccc(C(F)(F)F)c2)n1` the “hERG current change (%, negative = inhibition) at 1uM” value was 13.2%.
In the case of `Cc1cccc(CN2CCN(C(c3ccccc3)c3ccc(Cl)cc3)CC2)c1.Cl` (stereo not drawn), the “hERG current change (%, negative = inhibition) at 1uM” value was 20.5%.
`O=C(NCCC1CC1(Cl)Cl)c1ccc([N+](=O)[O-])cc1` (stereo not drawn) was tested, and the “hERG current change (%, negative = inhibition) at 1uM” value was -1.07%.
For `CCOc1ccc(C(=O)N[C@H](C(=O)Nc2ccccc2OC)C(C)C)cc1`, the “hERG current change (%, negative = inhibition) at 1uM” value was 8.93%.
With `O=C(NC1CCCC1)C(c1cccnc1)N(Cc1ccccc1F)C(=O)c1csnn1` (stereo not drawn) the “hERG current change (%, negative = inhibition) at 1uM” value was 9.57%.
With `CCCC(=O)N(c1ccc2oc(=O)sc2c1)S(=O)(=O)c1ccccc1` the “hERG current change (%, negative = inhibition) at 1uM” value was 9.92%.
With `Nc1nc(SCC(=O)Nc2ccccc2Oc2ccccc2)n[nH]1` the “hERG current change (%, negative = inhibition) at 1uM” value was 10.4%.
`Cc1c(C(=O)NCc2ccc3c(c2)OCO3)sc2nc(-c3ccc(F)cc3)cn12` was tested, and the “hERG current change (%, negative = inhibition) at 1uM” value was 14.7%.
For `O=C(c1ccc2ccccc2c1)C1CCCN(C(=O)c2cccnc2)C1` (stereo not drawn), the “hERG current change (%, negative = inhibition) at 1uM” value was 9.32%.
In the case of `Cc1ccc(S(=O)(=O)N(C)C)cc1NC(=O)c1c(-c2c(F)cccc2Cl)noc1C`, the “hERG current change (%, negative = inhibition) at 1uM” value was 7.98%.
With `O=C(N/N=C/c1ccoc1)c1ccccc1O` the “hERG current change (%, negative = inhibition) at 1uM” value was 8.4%.
With `O=C(CCN1C(=O)/C(=C/c2cccs2)SC1=S)Nc1ccccc1O` the “hERG current change (%, negative = inhibition) at 1uM” value was 8.15%.
With `CN(C)N1C(N)=C(C#N)C(c2ccccc2)C2=C1CCCC2=O` (stereo not drawn) the “hERG current change (%, negative = inhibition) at 1uM” value was 5.28%.
`Cc1nc2ccccc2cc1C(=O)O` was tested, and the “hERG current change (%, negative = inhibition) at 1uM” value was 17.7%.
`COc1ccc(CCNc2oc(-c3ccc(OC)c(OC)c3)nc2P(=O)(OC)OC)cc1OC` was tested, and the “hERG current change (%, negative = inhibition) at 1uM” value was 5.48%.
`CCN(CC)CCCNC(=O)CCc1ccccc1` was tested, and the “hERG current change (%, negative = inhibition) at 1uM” value was 9.18%.
`Cc1ccc(S(=O)(=O)N(C)C)cc1NC(=O)C1Cc2ccccc2CN1C(=O)c1ccco1` (stereo not drawn) was tested, and the “hERG current change (%, negative = inhibition) at 1uM” value was 6.76%.
In the case of `CC(C)=CC(=O)NCCc1ccccc1`, the “hERG current change (%, negative = inhibition) at 1uM” value was -3.6%.
For `C=CCNCc1ccccc1[N+](=O)[O-]`, the “hERG current change (%, negative = inhibition) at 1uM” value was 12.7%.
With `C=COCCNC(=O)Nc1ccc(Cl)c(Cl)c1` the “hERG current change (%, negative = inhibition) at 1uM” value was 11.3%.
In the case of `CCc1nnc(NC(=O)CSc2nc3[nH]ncc3c(=O)[nH]2)s1`, the “hERG current change (%, negative = inhibition) at 1uM” value was 17%.
With `Cn1c(=O)[nH]c(=O)c2c1nc(N1CCCCC1)n2CCCSc1nnnn1-c1ccccc1` the “hERG current change (%, negative = inhibition) at 1uM” value was -10.6%.
In the case of `CCOc1cc(Cl)c(S(=O)(=O)NCCCn2ccnc2)cc1Cl`, the “hERG current change (%, negative = inhibition) at 1uM” value was -10.7%.
For `O=C(NCc1ccc(Cl)cc1)C1CCN(S(=O)(=O)N2CCOCC2)CC1`, the “hERG current change (%, negative = inhibition) at 1uM” value was -5.66%.
`Cc1nc2sc(C(c3ccccc3)N3CCC(O)CC3)c(O)n2n1` (stereo not drawn) was tested, and the “hERG current change (%, negative = inhibition) at 1uM” value was 3.91%.
